Measured values as given in PubChem BioAssay AID540317 (National Center for Advancing Translational Sciences (NCATS), 2011).
Hit rate of the full screen: of about 390,000 compounds, about 2,200 (0.56%) were called active. Inconclusive means that the source gave no clear call. Such entries were picked first, then a sample of the others. The call rests on the fitted dose curve; in most records, active means well fitted inhibition curve with a large enough effect; inconclusive means small, poorly fitted or top-dose-only effect; inactive means no such curve, though single readings can be large or run the other way. Potencies of inconclusive entries are doubtful fits and often do not repeat.

target: Chromobox protein homolog 1 (Homo sapiens) (UniProt P83916); assay: HTS for Inhibitors of HP1-beta Chromodomain Interactions with Methylated Histone Tails; settings: AlphaScreen HP1-beta / biotin-H3K9me3 peptide binding; series mostly up to 114 µM; activity change, negative = inhibition: at the top concentration; further: nearly all actives have a fitted effect of over 70% in size
How it was run: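 AlphaScreen: HP1-beta (50 nM) preformed 30 min with biotin-H3(1-18)K9me3 peptide (50 nM) in PBS pH 7.4, 0.01% Tween-20. Compound added for 30 min at RT, then streptavidin donor/nickel chelate acceptor beads (10 ug/mL) for 30 min.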
Potency means the concentration at half of the fitted maximal effect; tags describe the fitted curve by direction and shape.

Chain of UniProt P83916 (P83916 whole entry, looked up): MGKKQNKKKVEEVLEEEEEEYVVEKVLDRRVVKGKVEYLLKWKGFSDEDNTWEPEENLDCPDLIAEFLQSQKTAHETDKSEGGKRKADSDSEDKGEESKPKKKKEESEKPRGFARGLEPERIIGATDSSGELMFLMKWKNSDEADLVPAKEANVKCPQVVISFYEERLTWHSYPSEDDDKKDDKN

Compound | Potency | activity change, negative = inhibition
Cc1cccc(NS(=O)(=O)c2ccc(C(=O)NCC(c3ccco3)N3CCCCC3)cc2)c1C (configuration not stated) | inconclusive: 79.4 µM [inhibitor, partial curve, poor fit] | –
Cc1cc(O)c(C(C)C)cc1N=Cc1ccc(N(C)C)cc1 | active: 44.7 µM | –
N#Cc1nc(COc2ccccc2)oc1N1CCN(Cc2ccccc2)CC1 | inconclusive: 28.2 µM [inhibitor, single point] | –
O=C1C(SCCO)=C(SCCO)C(=O)c2ccccc21 | inconclusive: 3.16 µM [inhibitor, full curve, poor fit] | –
COc1ccccc1C(=O)Nc1nc2nc(C)cc(=O)n2[nH]1 | – | inactive: 6.3%
COc1cc2c(cc1OC)CN(c1ncccc1[N+](=O)[O-])CC2 | inconclusive: 39.8 µM [inhibitor, partial curve, poor fit] | –
Cc1ccc(NC(=O)CN2C(=O)S/C(=C\c3cccn3-c3cccc(C(=O)O)c3)C2=O)c(C)c1 | active: 50.1 µM | –
CN(C)S(=O)(=O)N(CC(=O)Nc1ccc(C(F)(F)F)cc1)c1ccccc1 | – | inactive: 49.5%
CCc1ccc(NC(=O)c2nc3nc(C)cc(C(F)F)n3n2)cc1 | – | inactive: 11.2%
O=S(=O)(Nc1nc2ccccc2nc1Cl)c1ccc2ccccc2c1 | – | inactive: 23.8%
Cc1cc(NS(=O)(=O)c2ccc(NC(=O)COc3c(C)ccc(C)c3C)cc2)nc(C)n1 | – | inactive: 46.1%
COC(=O)c1[nH]c2cc(OC)ccc2c1NC(=O)CN1CCN(c2cccc(C)c2)C(C)C1 (configuration not stated) | inconclusive: 44.7 µM [inhibitor, partial curve] | –
CCOc1ccc(OCC)c(NC(=O)CN2CCN(c3cc(C)ccc3C)CC2)c1 | inconclusive: 28.2 µM [inhibitor, full curve, poor fit] | –
O=C(NCC(c1ccco1)S(=O)(=O)c1cccs1)c1ccccc1 (configuration not stated) | – | inactive: 25.1%
COCC(=O)N1CCCC(C(=O)c2ccc(-c3ccccc3)c(F)c2)C1 (configuration not stated) | inconclusive: 89.1 µM [inhibitor, single point] | –
C[N+](C)(C)CCOC(=O)C1(c2ccccc2)CCCC1 | inconclusive: 39.8 µM [inhibitor, single point] | –
N#C/C(=C\C=C\c1ccccc1[N+](=O)[O-])C(=O)NCc1ccccc1 | inconclusive: 39.8 µM [inhibitor, partial curve] | –
Cc1cccc(N2CCN(S(=O)(=O)c3ccc(-c4cnc(C5CC5)o4)cc3)CC2)c1C | – | inactive: -0.988%
O=[N+]([O-])c1ccccc1CN1CCN(S(=O)(=O)c2ccccc2)CC1 | inconclusive: 56.2 µM [inhibitor, single point] | –
Cc1ccc(S(=O)(=O)N2CCN(CC(=O)Nc3ccc([N+](=O)[O-])cc3)CC2)cc1C | inconclusive: 39.8 µM [inhibitor, single point] | –
COc1ccc(CNC(=O)C[C@H]2C[C@H](C(=O)N3CCCCC3)[C@@]3(C)c4[nH]c5cc(-c6ccco6)ccc5c4CCN3C2=O)cc1OC | inconclusive: 22.4 µM [inhibitor, full curve] | –
CCOC(=O)c1c(-c2ccc(C)o2)csc1NC(=O)CSc1ncn[nH]1 | – | inactive: -4.27%
C[C@@H]1O[C@@H](O[C@H]2[C@H](O)[C@@H](O)[C@H](Oc3c(-c4ccc(O)c(O)c4)oc4cc(O)cc(O)c4c3=O)O[C@@H]2CO)[C@H](O)[C@H](O)[C@H]1O | – | inactive: 28.3%

Compound | Potency | activity change, negative = inhibition
COc1ccc(CN2CCN(S(=O)(=O)c3ccccc3)CC2)c(OC)c1OC | inconclusive: 44.7 µM [inhibitor, partial curve] | –
CCOc1ccc(CNC(=O)C2CCN(S(=O)(=O)N3CCC(C)CC3)CC2)cc1OC | – | inactive: 10.8%
COc1ccc(C(O)P(=O)(OCC(C)C)OCC(C)C)c(OC)c1 (configuration not stated) | – | inactive: 24.7%
COc1cc(C(=O)Nn2cnnc2)ccc1OC(F)F | – | inactive: 50.6%
Cc1ccc(S(=O)(=O)SC/C=C/CSS(=O)(=O)c2ccc(C)cc2)cc1 | inconclusive: 4.47 µM [inhibitor, full curve, poor fit] | –
Cc1cccc(C2C3=C(Nc4[nH]n(-c5ccccc5)c(=O)c42)c2ccccc2C3=O)c1 (configuration not stated) | inconclusive: 28.2 µM [inhibitor, partial curve] | –
CC1(C)CC2CC(C)(CN2Cc2cccc([N+](=O)[O-])c2)C1 (configuration not stated) | inconclusive: 15.8 µM [inhibitor, partial curve] | –
COc1ccc(OC)c(C2Nc3c(Cl)ccc(C(=O)O)c3C3C=CCC32)c1 (configuration not stated) | inconclusive: 89.1 µM [inhibitor, partial curve, poor fit] | –
COc1ccc(NS(=O)(=O)c2ccc(NC(=S)NC(=O)/C=C/c3ccccc3)cc2)nn1 | inconclusive: 25.1 µM [inhibitor, full curve] | –
Cc1csc(Nc2ccc(Cl)cc2)[n+]1-c1ccc(Cl)cc1 | active: 17.8 µM | –
CN1C(=CC=C2C=C(I)C(=O)C(I)=C2)C(C)(C)c2ccccc21 | inconclusive: 7.08 µM [inhibitor, full curve, poor fit] | –
COc1ccccc1N1CCN(/N=C/c2cccc(OC)c2O)CC1 | – | inactive: 7.57%
COCCN(C(=S)Nc1c(C)cc(C)cc1C)C(C)c1cccnc1 (configuration not stated) | inconclusive: 39.8 µM [inhibitor, single point] | –
Cc1cc(Cl)c(OCCCN(C)C)c(Br)c1 | inconclusive: 14.1 µM [inhibitor, partial curve, poor fit] | –
CN(C)c1ccc(NC(=O)CSc2nnc(-c3ccco3)c(-c3ccco3)n2)cc1 | inconclusive: 17.8 µM [inhibitor, full curve] | –
Cc1cccc(NC(=O)CSc2nccn2Cc2ccc(F)cc2)c1C | – | inactive: 12.3% [at 57 µM]
CCOC(=O)C1CCCN(C(=O)c2ccc(-c3ccc([N+](=O)[O-])cc3)o2)C1 (configuration not stated) | inconclusive: 50.1 µM [inhibitor, partial curve] | –
C#CCOCCOCCOCCNc1nc(N2CCN(C(=O)CCCCCCCCCCNC(=O)[C@H](CCCCN)n3cc(C)nn3)CC2)nc(N2CCN(C(=O)CCCCCCCCCCNC(=O)[C@H](CO)n3cc(CCCSC)nn3)CC2)n1 | inconclusive: 56.2 µM [inhibitor, partial curve, poor fit] | –
O=C(CN1CCN(c2ccc(O)cc2)CC1)Nc1ccc2c(c1)OCCCO2 | inconclusive: 56.2 µM [inhibitor, partial curve, poor fit] | –
CCN1CCN(CC#CCOc2ccccc2OC)CC1 | inconclusive: 22.4 µM [inhibitor, full curve] | –
Cc1cccc(CSc2ncc(Cl)c(C(=O)Nc3sc4c(c3C(N)=O)CCCC4)n2)c1 | – | inactive: 35.6%
CCn1c(SCC(=O)Nc2ccc3[nH]c(=O)[nH]c3c2)nc2ccccc21 | inconclusive: 39.8 µM [inhibitor, single point] | –
Cc1ccc(NC(=O)CN(C)C(=O)C2CCC2)cc1 | – | inactive: 24.1%

Compound | Potency | activity change, negative = inhibition
CCOC(=O)c1ccc(N2C(=O)C=CC2=O)cc1 | active: 20 µM | –
O=[N+]([O-])c1ccc(C(=Nc2cccc3ccccc23)N2CCOCC2)cc1 | inconclusive: 31.6 µM [inhibitor, partial curve] | –
CCC(C)NCCOc1ccc(C)cc1[N+](=O)[O-] (configuration not stated) | inconclusive: 20 µM [inhibitor, full curve] | –
CN(CCOc1ccc(F)cc1)Cc1ccccc1 | inconclusive: 56.2 µM [inhibitor, partial curve, poor fit] | –
Cc1ccc(C(=O)/C=C/c2ccccc2[N+](=O)[O-])cc1 | inconclusive: 56.2 µM [inhibitor, single point] | –
CCc1cccc(NC(=O)CCS(=O)(=O)c2ccc(Br)cc2)c1 | active: 8.91 µM | –
Cc1cc(C)c2c(=O)n(CC(=O)NCCCN3CCN(c4ccccc4F)CC3)sc2n1 | active: 2.51 µM | –
COc1ccc(CCNC(=O)Cn2c(=O)n(Cc3ccco3)c(=O)c3ccc(Cl)cc32)cc1OC | – | inactive: 57.6%
Brc1ccc2nc(-c3c[nH]c4ccccc34)cn2c1 | inconclusive: 22.4 µM [inhibitor, partial curve, poor fit] | –
O=[N+]([O-])c1c(C(Cl)Cl)nn(-c2ccc(Cl)cc2)c1N1CCCCC1 | inconclusive: 28.2 µM [inhibitor, partial curve] | –
CCCCC(=O)Nc1ccc2c(c1)nc(CN1CCN(C(=O)OCC)CC1)n2C | – | inactive: 34.7%
COc1ccc([C@@H]2[C@@H]3C(=O)N(C(C)(C)C)C(=O)[C@@H]3[C@]3(Cc4ccc(Cl)cc4)C(=O)N(c4cccc(Br)c4)C(=O)N23)cc1 | – | inactive: 21.7%
CCC(C)(C)NC(=O)c1sccc1Oc1ccc(F)cc1[N+](=O)[O-] | inconclusive: 50.1 µM [inhibitor, partial curve] | –
N#C/C(=C/c1ccc(O)c(O)c1)c1nc2ccccc2[nH]1 | inconclusive: 8.91 µM [inhibitor, full curve] | –
O=C(Nc1ccc(NC(=O)c2cccs2)c(Cl)c1)c1cccs1 | – | inactive: -22.3%
Cc1cc(C)cc(N2C(=O)CC(Sc3ncn[nH]3)C2=O)c1 (configuration not stated) | inconclusive: 50.1 µM [inhibitor, single point] | –
Cc1cc(C(=O)C(C)Sc2cccc[n+]2[O-])c(C)n1-c1ccc(Cl)cc1 (configuration not stated) | – | inactive: -13.7%
CCCc1cc(=O)[nH]c2nnc(SCC(=O)NC3CCCC3)n12 | – | inactive: 45.7%
CCc1nnc(NC(=O)CSc2nc3c(c(=O)n2-c2ccccc2OC)SCC3)s1 | inconclusive: 89.1 µM [inhibitor, single point] | –
NC(N)=NS(=O)(=O)c1ccc(NC(=S)NC(=O)c2ccncc2)cc1 | inconclusive: 79.4 µM [inhibitor, partial curve, poor fit] | –
CCc1ccc(S(=O)(=O)c2nnn3c2nc(Nc2cc(OC)ccc2OC)c2sccc23)cc1 | – | inactive: 21%
